# Test results as given in the supplement of paper PMC8728848.
# The other results are listed elsewhere or left out.
# Key:
# Assay in all cases: glycan array binding signal (z-score within array); higher = stronger binding
# Details in all cases: glycan notation: IUPAC condensed, linker removed
# [1] = biological target: Fuc(a1-2)Gal(b1-4)GlcNAc(b1-3)Gal(b1-4)GlcNAc(b1-3)Gal(b1-4)GlcNAc
# Outline: (§1)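 The Consortium for Functional Glycomics database supplied 3228 glycan arrays, of which those lacking an available protein sequence were dropped. The binding signal, a within-array Z-score, was averaged across arrays of the same protein sequence and across linkers. Negative scores can be read as non-binding.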
# [2] = biological target: Fuc(a1-2)Gal(b1-4)GlcNAc(b1-3)GalNAc
# Outline: as §1
# [3] = biological target: Fuc(a1-2)Gal(b1-4)GlcNAc(b1-3)[Fuc(a1-2)Gal(b1-4)GlcNAc(b1-6)]GalNAc
# Outline: as §1
# [4] = biological target: Fuc(a1-2)Gal(b1-4)GlcNAc(b1-3)[Fuc(a1-3)[Gal(b1-4)]GlcNAc(b1-6)]Gal(b1-4)Glc
# Outline: as §1
# [5] = biological target: Fuc(a1-2)Gal(b1-4)GlcNAc(b1-6)GalNAc
# Outline: as §1
# [6] = biological target: Fuc(a1-2)Gal(b1-4)GlcNAc6S
# Outline: as §1
# [7] = biological target: Fuc(a1-2)Gal(b1-4)[Fuc(a1-3)]GlcNAc
# Outline: as §1
# [8] = biological target: Fuc(a1-2)Gal(b1-4)[Fuc(a1-3)]GlcNAc(b1-2)Man(a1-3)[Fuc(a1-2)Gal(b1-4)[Fuc(a1-3)]GlcNAc(b1-2)Man(a1-6)]Man(b1-4)GlcNAc(b1-4)[Fuc(a1-6)]GlcNAc
# Outline: as §1
# [9] = biological target: Fuc(a1-2)Gal(b1-4)[Fuc(a1-3)]GlcNAc(b1-2)[Fuc(a1-2)Gal(b1-4)[Fuc(a1-3)]GlcNAc(b1-4)]Man(a1-3)[Fuc(a1-2)Gal(b1-4)[Fuc(a1-3)]GlcNAc(b1-2)Man(a1-6)]Man(b1-4)GlcNAc(b1-4)GlcNAc
# Outline: as §1
# [10] = biological target: Fuc(a1-2)Gal(b1-4)[Fuc(a1-3)]GlcNAc(b1-3)Gal(b1-4)[Fuc(a1-3)]GlcNAc
# Outline: as §1
# [11] = biological target: Fuc(a1-2)Gal(b1-4)[Fuc(a1-3)]GlcNAc(b1-3)Gal(b1-4)[Fuc(a1-3)]GlcNAc(b1-3)Gal(b1-4)[Fuc(a1-3)]GlcNAc
# Outline: as §1
# [12] = biological target: Fuc(a1-2)Gal(b1-4)[Fuc(a1-3)]GlcNAc(b1-3)GalNAc
# Outline: as §1
# [13] = biological target: Fuc(a1-2)Gal(b1-4)[Fuc(a1-3)]GlcNAc(b1-3)[Neu5Ac(a2-6)Gal(b1-4)GlcNAc(b1-6)]Gal(b1-4)Glc
# Outline: as §1
# [14] = biological target: Fuc(a1-2)Gal3S(b1-4)GlcNAc
# Outline: as §1
# [15] = biological target: Fuc(a1-2)Gal6S(b1-3)GlcNAc
# Outline: as §1
# [16] = biological target: Fuc(a1-2)Gal6S(b1-3)GlcNAc6S
# Outline: as §1
# Fuc(a1-2)Gal6S(b1-4)Glc = biological target: Fuc(a1-2)Gal6S(b1-4)Glc
# Outline: as §1
# [17] = biological target: Fuc(a1-2)Gal6S(b1-4)Glc6S
# Outline: as §1
# Fuc(a1-2)[Gal(a1-3)]Gal = biological target: Fuc(a1-2)[Gal(a1-3)]Gal
# Outline: as §1
# [18] = biological target: Fuc(a1-2)[Gal(a1-3)]Gal(b1-3)GalNAc
# Outline: as §1
# [19] = biological target: Fuc(a1-2)[Gal(a1-3)]Gal(b1-3)GalNAc(b1-3)Gal(a1-4)Gal(b1-4)Glc
# Outline: as §1
# [20] = biological target: Fuc(a1-2)[Gal(a1-3)]Gal(b1-3)GlcNAc
# Outline: as §1
# [21] = biological target: Fuc(a1-2)[Gal(a1-3)]Gal(b1-3)GlcNAc(b1-2)Man(a1-3)[Fuc(a1-2)[Gal(a1-3)]Gal(b1-3)GlcNAc(b1-2)Man(a1-6)]Man(b1-4)GlcNAc(b1-4)GlcNAc
# Outline: as §1
# [22] = biological target: Fuc(a1-2)[Gal(a1-3)]Gal(b1-3)GlcNAc(b1-2)Man(a1-3)[Fuc(a1-2)[Gal(a1-3)]Gal(b1-3)GlcNAc(b1-2)Man(a1-6)]Man(b1-4)GlcNAc(b1-4)[Fuc(a1-6)]GlcNAc
# Outline: as §1
# [23] = biological target: Fuc(a1-2)[Gal(a1-3)]Gal(b1-3)GlcNAc(b1-3)GalNAc
# Outline: as §1
# [24] = biological target: Fuc(a1-2)[Gal(a1-3)]Gal(b1-3)GlcNAc(b1-6)GalNAc
# Outline: as §1
# [25] = biological target: Fuc(a1-2)[Gal(a1-3)]Gal(b1-4)Glc
# Outline: as §1
# [26] = biological target: Fuc(a1-2)[Gal(a1-3)]Gal(b1-4)GlcNAc
# Outline: as §1
# [27] = biological target: Fuc(a1-2)[Gal(a1-3)]Gal(b1-4)GlcNAc(b1-2)Man
# Outline: as §1
# [28] = biological target: Fuc(a1-2)[Gal(a1-3)]Gal(b1-4)GlcNAc(b1-2)Man(a1-3)[Fuc(a1-2)[Gal(a1-3)]Gal(b1-4)GlcNAc(b1-2)Man(a1-6)]Man(b1-4)GlcNAc(b1-4)GlcNAc
# Outline: as §1
# [29] = biological target: Fuc(a1-2)[Gal(a1-3)]Gal(b1-4)GlcNAc(b1-2)Man(a1-3)[Fuc(a1-2)[Gal(a1-3)]Gal(b1-4)GlcNAc(b1-2)Man(a1-6)]Man(b1-4)GlcNAc(b1-4)[Fuc(a1-6)]GlcNAc
# Outline: as §1
# [30] = biological target: Fuc(a1-2)[Gal(a1-3)]Gal(b1-4)GlcNAc(b1-3)GalNAc
# Outline: as §1
# [31] = biological target: Fuc(a1-2)[Gal(a1-3)]Gal(b1-4)GlcNAc(b1-3)[Fuc(a1-2)[Gal(a1-3)]Gal(b1-4)GlcNAc(b1-6)]GalNAc
# Outline: as §1
# [32] = biological target: Fuc(a1-2)[Gal(a1-3)]Gal(b1-4)GlcNAc(b1-6)GalNAc
# Outline: as §1
# [33] = biological target: Fuc(a1-2)[Gal(a1-3)]Gal(b1-4)[Fuc(a1-3)]Glc
# Outline: as §1
# [34] = biological target: Fuc(a1-2)[Gal(a1-3)]Gal(b1-4)[Fuc(a1-3)]GlcNAc
# Outline: as §1
# [35] = biological target: Fuc(a1-2)[Gal(a1-3)]Gal(b1-4)[Fuc(a1-3)]GlcNAc(b1-3)GalNAc
# Outline: as §1
binder,measurement,setting,value
PX9961T-pdi-555-33-555 (Parabacteroides distasonis) (protein) FDEETAFQSPTLVYVNTVASLYNNMFKIMGNDRHVYDLNTFSSDEAMLPCRIGDWEDGGLWQNIFLHRWGTMNDLTKNSWDFLYEQIGKCNQSVDKLQAFAEEQPDVEYFKVYLEEVRAVRAFFYYELLDLFARVPLVTSSTTPMSEVKQSERSVVFNFVRSELEEALPYLSDNRSNQKGEYYGRITKPVAYMILAKLALNAEVYADDNWTDGNRPAGKNIKFTVDGKEMNAWEATIAYVDKLEALGYKLQGNFSENFAVANETSVENIFTVPMDPVAYPDAKDYNLVRTRHYDHATAYGQSGWNGSCATVKAMNVFKFGTADEDPRCKLTYFTGEVTGPDGKTIYTEWDGQKVPLKYEPNAPKVYMDASDGLLVKTAGARMAKYEFDQNAQDGGNLHGNDCVIFRFADALLMKAEAKIRLGQNGDDEVNQVRNRVGAKPLQNVTLDTLLDERMLELAWEGVRRQDLIRFGKFTEATVDRYVGVKHFASSLDYQEDKTGYTTVFSIYADILSLNPNLTQNPGY,glycan array binding signal (z-score),[1],-0.003
same,glycan array binding signal (z-score),[2],0.576
same,glycan array binding signal (z-score),[3],0.373
same,glycan array binding signal (z-score),[4],-0.528
same,glycan array binding signal (z-score),[5],-0.483
same,glycan array binding signal (z-score),[6],-0.249
same,glycan array binding signal (z-score),[7],-0.586
same,glycan array binding signal (z-score),[8],0.323
same,glycan array binding signal (z-score),[9],-0.234
same,glycan array binding signal (z-score),[10],-0.749
same,glycan array binding signal (z-score),[11],-0.168
same,glycan array binding signal (z-score),[12],-0.359
same,glycan array binding signal (z-score),[13],0.591
same,glycan array binding signal (z-score),[14],-0.354
same,glycan array binding signal (z-score),[15],0.027
same,glycan array binding signal (z-score),[16],0.583
same,glycan array binding signal (z-score),Fuc(a1-2)Gal6S(b1-4)Glc,-0.589
same,glycan array binding signal (z-score),[17],-0.413
same,glycan array binding signal (z-score),Fuc(a1-2)[Gal(a1-3)]Gal,0.047
same,glycan array binding signal (z-score),[18],-0.357
same,glycan array binding signal (z-score),[19],-0.628
same,glycan array binding signal (z-score),[20],0.058
same,glycan array binding signal (z-score),[21],0.711
same,glycan array binding signal (z-score),[22],-0.167
same,glycan array binding signal (z-score),[23],-0.258
same,glycan array binding signal (z-score),[24],-0.506
same,glycan array binding signal (z-score),[25],0.982
same,glycan array binding signal (z-score),[26],0.568
same,glycan array binding signal (z-score),[27],0.332
same,glycan array binding signal (z-score),[28],-0.448
same,glycan array binding signal (z-score),[29],0.254
same,glycan array binding signal (z-score),[30],-0.696
same,glycan array binding signal (z-score),[31],0.214
same,glycan array binding signal (z-score),[32],0.678
same,glycan array binding signal (z-score),[33],0.475
same,glycan array binding signal (z-score),[34],0.225
same,glycan array binding signal (z-score),[35],-0.153
